# Results reported in PubChem BioAssay AID686978 (National Center for Advancing Translational Sciences (NCATS), 2013).
# Screen size: about 420,000 compounds; about 64,000 (15%) were called active. Inconclusive results, whose numbers are uncertain, are shown with a selection of clear calls. The call rests on the fitted dose curve; in most records, active means well fitted inhibition curve with a large enough effect; inconclusive means small, poorly fitted or top-dose-only effect; inactive means flat fitted curve, though single readings scatter. No potency is given beside an inconclusive call; the fits are too rough.
# Test: qHTS for Inhibitors of human tyrosyl-DNA phosphodiesterase 1 (TDP1): qHTS in cells in absence of CPT; further: nearly all actives have a fitted effect of over 55% in size
# Conditions: DT40 Tdp1-/- hTDP1 cells, no CPT, ATP luminescence, 48 h; activity change, negative = growth inhibition: at 46.2 µM (top of the series) unless noted
# How it was run: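 Stably hTDP1-transfected Tdp1-null chicken DT40 cells were treated with library compounds minus camptothecin and grown for at least 48 hr at 37 °C, after which cellular ATP was quantified by luminescence.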
# On the % scale 0 is the no-effect control and ±100 the full control effect; potency means the concentration at half of the fitted maximal effect; tags describe the fitted curve by direction and shape.
SMILES,"activity change, negative = growth inhibition",Potency
CCOc1ccc(-n2c(=O)c3c(C)c(C)sc3n(CC(=O)Nc3ccc(CC)cc3)c2=O)cc1,inactive: -22.3%,
COc1ccc(-n2nnc3c(SC(C(C)=O)C(=O)N(C)C)ncnc32)cc1 (stereo not given),,active: 16.4 µM
COc1ccc(NC(=O)C(c2ccncc2)n2c(=O)c(-c3cc4ccccc4[nH]3)nc3ccccc32)cc1 (stereo not given),,active: 18.4 µM
CSc1ccc(CCNC(=O)Cn2ncn3c(cc4ccccc43)c2=O)cc1,inactive: -12.1%,
Cc1cccc(NC(=O)CSc2nnc(CNC(=O)c3ccco3)n2C)c1C,inactive: 2.12%,
CCN1C(=O)N(c2ccc(C(C)=O)cc2)S(=O)(=O)c2ccccc21,,"inconclusive [inhibitor, single point]"
O=C(CN1CCN(Cc2ccc3c(c2)OCO3)CC1)N1CCc2[nH]c3ccc(F)cc3c2C1,,"inconclusive [inhibitor, full curve, poor fit]"
COc1ccc(C(=O)NC(=S)NNC(=O)c2ccncc2)cc1Br,,"inconclusive [inhibitor, single point]"
Cc1ccc(CN2C(=O)C(=O)c3cc(Br)cc(C)c32)cc1,,active: 1.46 µM
Cc1ccccc1NC(=O)CSCc1nc(N)nc(Nc2ccccc2C)n1,inactive: -1.65%,
CCOC(=O)c1c(C)nc(C)c(C(=O)OCC)c1-c1ccc(Br)cc1,,"inconclusive [inhibitor, single point]"
CCCCCCN1C[C@H](n2cc(C3CC3)nn2)[C@@H](O)C[C@@H]1c1ccc(Cl)cc1,,"inconclusive [inhibitor, single point]"
CCN(C(=O)c1cc2c(=O)n(CC)c3ccccc3c2s1)c1cccc(C(F)(F)F)c1,,active: 9.2 µM
CC1C(=NO)C(C)C(c2ccccc2)NC1c1ccccc1 (stereo not given),inactive: -17.3%,
Nc1nc(CN2CCc3ccccc3C2)nc(Nc2ccccc2)n1,,"inconclusive [inhibitor, single point]"
Cc1ccc(CC(=O)N2CCN(c3ccccn3)CC2)cc1,inactive: -4.06%,
Cn1nc(-c2ccc(OCC(=O)Nc3ccc(Cl)cc3)cc2)c2ccccc2c1=O,,active: 20.6 µM
CN1CCCC(CNC(=O)c2cnn(-c3ncc4c(n3)-c3ccccc3CC4)c2C2CC2)C1 (stereo not given),inactive: -9.84%,
CC1(C)COC(c2cc3c(cc2Br)OCO3)OC1,inactive: -18.7%,
Cc1cccc(CN2CCN(C(=O)CCl)CC2)c1,,active: 16.4 µM
COc1ccc(CCNC(=O)c2c(O)c3ccccc3[nH]c2=O)cc1OC,,"inconclusive [inhibitor, single point]"
CC(C)=CCc1c(O)c(CC=C(C)C)c2occ(-c3ccc(O)cc3)c(=O)c2c1O,,"inconclusive [inhibitor, single point]"
CCn1c(COc2ccc(Cl)cc2)nnc1SCc1ccc(C#N)cc1,,"inconclusive [inhibitor, single point]"
COc1ccc(CNc2oc(-c3cccc4ccccc34)nc2C#N)cc1,,"inconclusive [inhibitor, partial curve, poor fit]"

SMILES,"activity change, negative = growth inhibition",Potency
O=C(CSc1nnnn1-c1ccccc1)CSc1nnnn1-c1ccccc1,,"inconclusive [inhibitor, single point]"
CN(C)C(=O)CSc1nc(-c2ccccc2)nc2c1CCCC2,,"inconclusive [inhibitor, partial curve]"
C#CCNC(=O)C1=C[C@@H](C)[C@H](CCCO)[C@@H](OCC)O1,inactive: 9.77%,
CCc1ccc([C@@H]2C[C@H]3[C@@H](CN2S(=O)(=O)c2ccc(C)cc2)C(=O)C[C@@H](c2ccccc2F)N3S(=O)(=O)c2ccc(C)cc2)cc1,,"inconclusive [inhibitor, partial curve]"
Cc1nc2sccn2c1-c1csc(NCc2ccccc2)n1,,active: 13 µM
CC(c1ccco1)N(C(=O)C12CC3(C)CC(C)(CC(C)(C3)C1)C2)c1ccccn1 (stereo not given),,"inconclusive [inhibitor, single point]"
Cc1cc(C)c(S(=O)(=O)N2CCN(C(=O)c3ccc(-n4cncn4)c([N+](=O)[O-])c3)CC2)c(C)c1,,active: 13 µM
CCN(CC)C(=O)CSc1nc2c(sc(=S)n2-c2ccccc2)c(=O)n1-c1ccccc1OC,,"inconclusive [inhibitor, single point]"
CCCNC(=O)COC(=O)/C=C/c1ccc2c(c1)OCO2,,"inconclusive [inhibitor, partial curve]"
O=C(Cc1cn2ccsc2n1)OCc1ccccc1,,"inconclusive [inhibitor, single point]"
Cc1ccc(-c2[nH]nc(N)c2N=Nc2cccc(Cl)c2C)cc1,,active: 13 µM
Cc1ccc(S(=O)(=O)c2nnn3c2nc(N2CCCCC2)c2ccccc23)cc1,,"inconclusive [inhibitor, single point]"
Cc1nn(Cc2c(F)c(F)c(F)c(F)c2F)c(C)c1NC(=O)c1cccc(COc2ccc(Cl)cc2)c1,,active: 7.31 µM
Cc1ccc(CS(=O)Cc2ccc(C(=O)N3CCN(c4ccc(F)cc4)CC3)o2)cc1 (stereo not given),,"inconclusive [inhibitor, partial curve]"
CC(=N\NC(=O)c1cc(Br)ccc1O)/C(=N/O)C(=O)Nc1ccccc1,,"inconclusive [inhibitor, single point]"
CC(C)(C)C1CCc2c(sc(NC(=O)CSc3ncn[nH]3)c2C#N)C1 (stereo not given),,"inconclusive [inhibitor, partial curve]"
CCCOc1cccc(C(=O)NC(=S)Nc2ccccc2)c1,,"inconclusive [inhibitor, single point]"
CC(Sc1nc2ccccc2c(=O)n1C)C(=O)N(C)C1CCCCC1 (stereo not given),,active: 7.31 µM
O=C(NC1CC2CCCC(C1)N2Cc1ccco1)NC12CC3CC(CC(C3)C1)C2 (stereo not given),,active: 18.4 µM
CCC1Cc2[nH][nH]c(=O)c2C(CC)O1 (stereo not given),inactive: -17.1%,
CC(C)c1ccc(NC(=O)C2Cc3ccccc3N2C(=O)c2ccccc2)cc1 (stereo not given),,active: 5.8 µM
CC(=O)c1c(C)[nH]c(C(=O)CSc2nnc(-c3cccs3)n2Cc2ccccc2)c1C,,"inconclusive [inhibitor, single point]"
Cc1cc(NC(=O)C(=O)NCc2cccc(Cl)c2)no1,inactive: -26.7%,
O=C(CN(C(=O)c1csnn1)c1ccccc1F)NC1CCCCC1,inactive: -14.1%,

SMILES,"activity change, negative = growth inhibition",Potency
Cc1cccc(NC(=O)CSCC(=O)Nc2ccccc2N2CCCCC2)c1,,"inconclusive [inhibitor, single point]"
CCc1ccc2[nH]c(=O)c(CN(Cc3ccc(F)cc3)C(c3nnnn3CCN3CCOCC3)C(C)C)cc2c1 (stereo not given),,"inconclusive [inhibitor, partial curve]"
Cc1cc(C)cc(-n2c(C)cc(/C=C3\C(=N)N4N=C(CC(C)C)SC4=NC3=O)c2C)c1,,"inconclusive [inhibitor, single point]"
O=C(Cn1nc(-c2ccc(Cl)cc2)ccc1=O)NCCCN1CCN(Cc2ccccc2)CC1,,"inconclusive [inhibitor, partial curve]"
CC(C)CCn1nnnc1CN1CCN(C(=O)c2ccco2)CC1,,"inconclusive [inhibitor, single point]"
CCNC(=S)NC1CC2CCCC(C1)N2Cc1ccc(C)cc1 (stereo not given),,"inconclusive [inhibitor, single point]"
Cn1ccsc1=NC(=O)c1ccc(S(=O)(=O)C(F)F)cc1,,"inconclusive [inhibitor, single point]"
Cc1cc(C)nc(Nc2ccccc2Br)n1,inactive: -29%,
Cc1cc(C(=O)Nc2cccc3cccnc23)ccc1[N+](=O)[O-],,"inconclusive [inhibitor, partial curve, poor fit]"
COc1ccccc1CNC(=O)c1ccc(CSc2nc3ccncc3n2Cc2ccccc2C)cc1,,"inconclusive [inhibitor, single point]"
N=c1n(Cc2ccccc2)c2ccccc2n1CC(O)c1ccco1 (stereo not given),,active: 23.1 µM
Cc1ccc(O)c(-c2cc(-c3ccccc3C)[nH]n2)c1,,"inconclusive [inhibitor, single point]"
COC(=O)c1sccc1NC(=O)Cn1cnc2c1c(=O)n(C)c(=O)n2C,,"inconclusive [inhibitor, partial curve]"
CCOC(=O)c1ccc(NC(=S)N2CCSC2c2ccc(OC)cc2)cc1 (stereo not given),,"inconclusive [inhibitor, partial curve]"
Cc1ccccc1NC(=S)NCC1CCC(CNC(=S)Nc2ccccc2C)CC1 (stereo not given),,"inconclusive [inhibitor, single point]"
Cc1ccc2cc(/C=N/Nc3ccc(C(=O)O)cc3)c(Cl)nc2c1,,"inconclusive [inhibitor, partial curve]"
CCNC(=O)COC(=O)/C=C/c1cccc(F)c1,inactive: -12.8%,
COc1ccccc1C1NC(=O)c2ccccc2O1 (stereo not given),inactive: -16.6%,
C=CCn1c(SCC(=O)NC2CCCC2)nc2scc(-c3ccco3)c2c1=O,,"inconclusive [inhibitor, single point]"
CN1CCN(S(=O)(=O)c2ccc(Br)c3nsnc23)CC1,,"inconclusive [inhibitor, partial curve]"
CN1CCN(S(=O)(=O)c2ccc(N3CCN(S(=O)(=O)/C=C/c4ccccc4)CC3)nc2)CC1,,"inconclusive [inhibitor, single point]"
Cc1onc(-c2ccccc2)c1C(=O)NC(=S)NNC(=O)c1cc(-c2ccc(F)cc2)n[nH]1,,active: 20.6 µM
